# Experimental data reported in the supplement of paper PMC11417369.
# ± gives the standard deviation of the averaged measurements. Some of the results follow.
# System: PfAP2-EXP AP2 domain (GST-tagged)
# Assay: gcPBM binding intensity (ln(normalized median fluorescence intensity)); higher = stronger DNA binding
# Summary of the method: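 The binding buffer was 1× PBS containing 1% milk, 0.2 mg/ml BSA, 0.5% salmon testes DNA and 0.03% Triton X-100. In it, GST-tagged P. falciparum DNA-binding domains expressed in E. coli were applied for 1 h to an Agilent 4 × 180k array of primer-extended double-stranded 36-bp intergenic genomic probes plus negative controls. Binding intensity, read with Alexa488 anti-GST antibody and a 488 nm scan, is the highest Masliner-normalised natural-log median intensity across replicate spots of either probe orientation.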
row,Sequence,gcPBM binding intensity (ln)
1,ATCTATGATATATACACACACATGTATAAATAAATA [CACACA_site7012],8.37 ± 0.4
2,TAATTTTTTTTTCTTGTACACACTATTTTATAATTT [CACACA_site4078],8.79 ± 0.44
3,AATAGTATTCACAAAGTTTTATATAATAAATATAAA [GTGCAC_negctrl_site154],8.1 ± 0.45
4,CTTTCATATGTTTTAACACACACGCATATATTATAT [CACACA_site8615],9.04 ± 0.4
5,TTTTTTTTTTTGATTTGTACACAAAAAAAATATATG [XGTACX_site4547],8.39 ± 0.29
6,TTTTTTTTTTGATGTTGTACATATATATTATATATA [XGTACX_site6377],8.55 ± 0.41
7,TTTTTTTTTTTTTTTTGTACATATTTTTAAACTATA [XGTACX_site2897],8.22 ± 0.45
8,AGATATATGGACGACTCACACATTTAAATTCATTCA [CACACA_site6047],8.65 ± 0.4
9,TCGAACGTATCATGTGTACACACAAATTGTTTTTTT [CACACA_site8623],8.85 ± 0.3
10,GTATAAAAGTAACTAGTGCATTACATATGAATAAAA,8.74 ± 0.51
11,CCTTGCCCCAGGAGTTCACACACATAATAGATTGTC [CACACA_site8138],8.82 ± 0.64
12,AGATATTTTTCTTAAGTACACACTAATTAGAAACTA [CACACA_site7897],8.52 ± 0.23
13,TTTTTATTTTAAAAGAATAATTATCTAATATCTATA [CACACA_negctrl_site371],7.96 ± 0.41
14,TTACCTCTTTGAAATATACACACTAAACATATCAAC [CACACA_site2455],8.6 ± 0.42
15,GACACCTGCATGAAAGTGCAAAATAGAAAAGGAACA [GTGCAC_site9593],9.22 ± 0.38
16,AAATACCTTATATATACACACTATGTTTTTCTTTTT [CACACA_site4792],8.71 ± 0.36
17,AACACGCACAGACACACACACAAAAATGATTAAAAA [CACACA_site7195],8.61 ± 0.32
18,AAGGAATAATAATAAATGTAAAGAAAAGCATACTGA [CACACA_negctrl_site36],8.79 ± 0.45
19,TTTATGAGGTTACTATGTACGCAAATTATGTAATAA [XGTACX_site325],8.63 ± 0.23
20,ATTTGTGTTATTCGAAGTACGGATCATTTGAAATAA [XGTACX_site2510],8.56 ± 0.31
21,AAAAGAAGAAACAAAACACACACAGTCTTCTTTTCT [CACACA_site9015],8.93 ± 0.62
22,AGCAATTTGGGGTGTACACACACCTTATTTAAATTA [CACACA_site1157],8.74 ± 0.38

row,Sequence,gcPBM binding intensity (ln)
1,TCAAATTATTAAAATACACACATATTATATATATAT [CACACA_site2530],9.46 ± 0.23
2,TAATAAAACATATATACACACATTAGATATACATAT [CACACA_site6897],8.46 ± 0.4
3,TTCCCAACATGATATTGTACATTTAATTATAATTAA [XGTACX_site7029],8.81 ± 0.38
4,TATAAATAAAGACACACACACACACCGTATAATTAC [CACACA_site7829],8.65 ± 0.57
5,TATATCTCTTTATTCACACATACGTTTTAAAATAAT [CACACA_site5542],8.8 ± 0.44
6,CCAGGAAAAATTTATTGTACATATATTTTTATGCTC [XGTACX_site7154],8.55 ± 0.47
7,TATATGTTTGAATATACACACAACATATATATATAT [CACACA_site4066],10 ± 0.26
8,ATATTATTAATTTGTTGTACAGTTCTTTATTTATAG [XGTACX_site7932],8.82 ± 0.45
9,TATATTAAAAAAAAATGTACACATATATATATATAT [XGTACX_site4524],10.1 ± 0.43
10,TATTTTTGGTTATGTGTGCACTATGAACAACAAAAT,9.18 ± 0.14
11,TATTTTTAACAGTGCACACATAACTTAATTATATGT [CACACA_site2194],8.81 ± 0.18
12,GAAAGAAAATATTAAGTGCATATTTTAATGATACAA [GTGCAC_site9712],8.6 ± 0.22
13,ATAAAAATAAAAAAAACACACATACCTTATTTTTGT [CACACA_site5452],8.54 ± 0.57
14,GTGCATAAATCATACACACACACATATATATATATA [CACACA_site2423],10.1 ± 0.18
15,AATCAAAATAAATTAACACACAATTTTAATATTGTT [CACACA_site10],8.18 ± 0.36
16,TATAAAAAATTATGTTGTACGTAATATAAAATTTGT [XGTACX_site7122],8.57 ± 0.3
17,AAATATAAATGGTAATACACATACACACACACATAC [XGTACX_negctrl_site459],9.04 ± 0.41
18,ATTTTCCATATATTTTGTACATATGTATATTTTCCC [XGTACX_site7795],9.01 ± 0.48
19,CATATATGTTATATTTAACACACATATAAGGTACAT [CACACA_site8105],8.47 ± 0.38
20,TATATATTATATATATGTACATATTGTTGTGTATAT [XGTACX_site767],8.63 ± 0.29
21,TTTATAATTTATATCACACATATATCTGTAATAAAT [CACACA_site5048],8.24 ± 0.44
22,ATCTCTGTAAAGATCACACATATATTTTTGTTATAT [CACACA_site5094],8.48 ± 0.35

row,Sequence,gcPBM binding intensity (ln)
1,TTATTACACACATATGTGCACATATAAAAGTACACG [GTGCAC_site9581],8.97 ± 0.25
2,CAGCTCTTAAAAATTACACACATATACACATATATA [CACACA_site9073],8.29 ± 0.4
3,TATAAATACAATTCACAAGAGATCATGTATCAAACC [CACACA_negctrl_site1219],8.41 ± 0.4
4,TATATATATATATATACACACATTTTTAATGATAAA [CACACA_site2695],10.1 ± 0.37
5,TTTCTAGTTACAAGAGTGCATAATATATAAAAATAA [GTGCAC_site9874],8.85
6,ATATAATAAATATGTTGTACTATAAAAAATAGCCAT [XGTACX_site4710],8.36 ± 0.092
7,TTAGTCGAATGATGTACACACATACAAAACATTTAT [CACACA_site6076],8.63 ± 0.39
8,ACTAATTACTATAAAACACACATATATATATATATA [CACACA_site2591],10.2 ± 0.29
9,AAAAAAAAAAAAAAAAAAAAAAAAAAAAGAAAAAAG [GTGCAC_negctrl_site583],8.905 ± 0.049
10,AGAAAATATTTTGGTTGTACAGGCGATTTATATGTT [XGTACX_site7253],8.79 ± 0.51
11,AAAAATTCTTGGCGCACACACTTTAAAAATTAAAAA [CACACA_site4498],8.7 ± 0.33
12,TTATATTTTCAGAATAGTACACATATATACATATAT [XGTACX_site2519],8.31 ± 0.24
13,TTATAAAAGAAAAAAAAAAAAAAAAAAAAAAAAAAA [CACACA_negctrl_site1006],7.89 ± 0.43
14,GATCATTTAAAATAAGTAATATTTTTTTTACTTTTG [TGCATGCA_negctrl_site602],8.03 ± 0.28
15,TTTAGCCAATTTTTAAAGTTTAAAAAAGAAAAAAGA [CACACA_negctrl_site118],8.38 ± 0.39
16,TATTAAAAATACATATGTACTCATAGCATAAAACAT [XGTACX_site8686],8.73 ± 0.36
17,TTTTGGCTGATCAGATTTAACAAAAAAAAAAAAAAA [CACACA_negctrl_site671],8.09 ± 0.54
18,TGTGAAAATTATGGGGCATGCAATACTTTAAAAATA [TGCATGCA_site653],9.28 ± 0.57
19,CAAATGTAGAAAATGTGTACATAAAAAAAAAAAAAA [XGTACX_site8276],8.37 ± 0.55
20,AGTCAATTTTGTGTGTCAACATTTATATAAAGAATG [TGCATGCA_negctrl_site400],8.54 ± 0.38
21,CCTTCAATTTACATAACACACATTTAACCATAATAA [CACACA_site2394],8.56 ± 0.36
22,CAAATATATATTTTCTGTACAAATACAATTAATACT [XGTACX_site2694],8.5 ± 0.4

row,Sequence,gcPBM binding intensity (ln)
1,AGATATTAAAACGTTACACACATTTATATATCTTCT [CACACA_site908],8.48 ± 0.46
2,TTCCAAAATTGCATTTGTACCCAAAAAATGTATACG [XGTACX_site7680],8.59 ± 0.41
3,GTAAGTTTGAATACACGTACAAATTTATTAAAGTCC [XGTACX_site6722],8.81 ± 0.35
4,ATATTATTAATTTATAGTACTCATTTTTTTTTTTTT [XGTACX_site3536],8.45 ± 0.33
5,ATCAGTCGGCAGGACAGTACACAGTAGCCAGGAAAT [XGTACX_site2003],8.82 ± 0.52
6,GCTTTTTATTTTTACCGTACATTATATATGTATATA [XGTACX_site808],9.17 ± 0.37
7,AACGCGAACAATTTATAGATAACTTTTAATTATTAT [GTGCAC_negctrl_site179],8.31 ± 0.44
8,ATATATATATTTGTGTGTACATATTAATTTGTATGA [XGTACX_site4047],9.45 ± 0.19
9,ATACATTTTTGTAAAAGTACATATACATGCCCCCTT [XGTACX_site1367],9.62 ± 0.19
10,ATGGTATATCCAAATAAACACACGTAAATACATAAA [CACACA_site1682],8.69 ± 0.45
11,ATTTAATACAAATACACACACAAATATATACATATA [CACACA_site3747],8.55 ± 0.54
12,TATATATATATAAACTGTACTATTTTATGTTAAAAG [XGTACX_site3630],9.96 ± 0.13
13,AATATATATATAGGATGTACACATAATTCAAATACA [XGTACX_site6368],8.8 ± 0.4
14,AGTAGATATAATTATAGTACTTTGATGTTTTCTTTA [XGTACX_site5038],8.39 ± 0.45
15,TGGCAAAATAGGCACACACACATATACATCTATATT [CACACA_site6626],8.6 ± 0.45
16,ATATGATAAATTATATGTACTTAAAATATATTATAA [XGTACX_site5904],8.26 ± 0.18
17,TTTTTTTTTAGAAAAACATGCATGTCCTAAAAATAA [TGCATGCA_site684],8.89 ± 0.27
18,AAAAAAAAAAAAAAAAAAAAAAAAACAATGAATTTA [GTGCAC_negctrl_site698],9.15 ± 0.14
19,CACAGAAATAGAGATACACACACACCGATATTTATG [CACACA_site9313],8.68 ± 0.44
20,ATAGTTATTTTATAGCGTACACAATAAATATATAAA [XGTACX_site4445],8.63 ± 0.28
21,TTTTTCTATATTTTCTTTTATAAAATATATAATTTT [GTGCAC_negctrl_site345],8.32 ± 0.4
22,GTCATATATTATAATAGTACATAAATAATTGATGCC [XGTACX_site3567],8.53 ± 0.085
